Measured values reported in the supplement of paper PMC11741623.
Some of the results follow. Interaction screen of human proteins with wild-type SARS-CoV-2 proteins by split-DHFR complementation in yeast, 1 µg/mL methotrexate. Value = fitness of the pair (three or more lineages) minus that of the viral protein without a human partner, on a scale set by negative (0) and fused positive (1) controls, mean of up to three cultures; higher = more likely to interact. Active = false discovery rate below 0.05 (one-sided t-test) in at least one culture. Nearly all pairs are not hits, and differences among them are mostly noise (correlation between cultures about 0.3); most hits were seen in one culture only. Human sequences are the Swiss-Prot entries looked up by gene name; the clone may be another isoform. NSP2 values were corrected by the authors for a growth advantage. Listed are human proteins with a hit and a random twelfth of the others.

Key:
Test in all cases: yeast fitness gain over the viral ORF with no human partner (scaled fitness); higher = more likely to interact
[1] = molecular target: SARS-CoV-2 M
Description: (§1)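 Split mouse DHFR complementation in pooled diploid yeast: human ORFeome clones carry one fragment and viral ORFs the other; barcoded lineages compete in 1 µg/mL methotrexate and fitness is read by barcode sequencing in up to three cultures.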

[2] = molecular target: SARS-CoV-2 NSP1
Description: as §1

[3] = molecular target: SARS-CoV-2 NSP10
Description: as §1

[4] = molecular target: SARS-CoV-2 NSP12
Description: as §1

[5] = molecular target: SARS-CoV-2 NSP13
Description: as §1

[6] = molecular target: SARS-CoV-2 NSP15
Description: as §1

[7] = molecular target: SARS-CoV-2 NSP16
Description: as §1

[8] = molecular target: SARS-CoV-2 NSP2
Description: as §1

[9] = molecular target: SARS-CoV-2 NSP5
Description: as §1

[10] = molecular target: SARS-CoV-2 NSP6
Description: as §1

[11] = molecular target: SARS-CoV-2 NSP7
Description: as §1

[12] = molecular target: SARS-CoV-2 NSP8
Description: as §1

[13] = molecular target: SARS-CoV-2 NSP9
Description: as §1

[14] = molecular target: SARS-CoV-2 ORF10
Description: as §1

[15] = molecular target: SARS-CoV-2 ORF3A
Description: as §1

[16] = molecular target: SARS-CoV-2 ORF3B
Description: as §1

[17] = molecular target: SARS-CoV-2 ORF6
Description: as §1

[18] = molecular target: SARS-CoV-2 ORF7A
Description: as §1

[19] = molecular target: SARS-CoV-2 ORF7B
Description: as §1

[20] = molecular target: SARS-CoV-2 ORF8
Description: as §1

[21] = molecular target: SARS-CoV-2 ORF9B
Description: as §1

[22] = molecular target: SARS-CoV-2 ORF9Bwu (the 73-codon ORF)
Description: as §1

[23] = molecular target: SARS-CoV-2 S
Description: as §1

[24] = molecular target: SARS-CoV-2 N
Description: as §1

[25] = molecular target: SARS-CoV-2 NSP14
Description: as §1

[26] = molecular target: SARS-CoV-2 NSP4
Description: as §1

Measured: yeast fitness gain

B1: SPATA12, Q7Z6I5 (protein)
chain: MSSSALTCGSTLEKSGDTWEMKALDSSRLVPWPPRGLGSSTQHPNKPHCALASCQGPGVLPGAASALPELTFQGDVCQSETCQRYLQAAISLDIAVSQINLLGRPSSPPALLIQQGSCEQVIHNSTPQFLGMEDGDNERTTGWLWRLCEDIDAEPSSTGCSRSNQLTFTEGCFVRSLSTVYSNTHIHTHL
inactive: [1] -0.0937 | [2] -0.164 | [3] -0.093 | [4] -0.0771 | [5] 0.0756 | [6] -0.278 | [7] 0.0308 | [8] -0.12 | [9] -0.0133 | [10] 0.0384 | [11] 0.0433 | [12] -0.0619 | [13] -0.0934 | [14] 0.0046 | [15] 0.00542 | [16] -0.00256 | [17] -0.144 | [18] 0.0402 | [19] -0.0449 | [20] 0.0157 | [21] 0.0106 | [22] -0.07 | [23] -0.0147

B2: STK11, Q15831 (protein)
chain: MEVVDPQQLGMFTEGELMSVGMDTFIHRIDSTEVIYQPRRKRAKLIGKYLMGDLLGEGSYGKVKEVLDSETLCRRAVKILKKKKLRRIPNGEANVKKEIQLLRRLRHKNVIQLVDVLYNEEKQKMYMVMEYCVCGMQEMLDSVPEKRFPVCQAHGYFCQLIDGLEYLHSQGIVHKDIKPGNLLLTTGGTLKISDLGVAEALHPFAADDTCRTSQGSPAFQPPEIANGLDTFSGFKVDIWSAGVTLYNITTGLYPFEGDNIYKLFENIGKGSYAIPGDCGPPLSDLLKGMLEYEPAKRFSIRQIRQHSWFRKKHPPAEAPVPIPPSPDTKDRWRSMTVVPYLEDLHGADEDEDLFDIEDDIIYTQDFTVPGQVPEEEASHNGQRRGLPKAVCMNGTEAAQLSTKSRAEGRAPNPARKACSASSKIRRLSACKQQ
inactive: [1] -0.093 | [24] 0.0335 | [2] -0.0406 | [3] -0.0835 | [4] -0.0424 | [5] -0.00495 | [25] -0.0261 | [6] -0.0329 | [8] -0.0173 | [26] 0.0758 | [9] -0.0272 | [10] 0.101 | [11] 0.0097 | [12] -0.11 | [13] -0.0264 | [14] 0.189 | [15] -0.0652 | [16] -0.13 | [17] 0.0288 | [18] 0.0171 | [19] 0.0127 | [20] 0.0106 | [21] -0.0599 | [22] 0.0929 | [23] -0.0563

B3: TINAG, Q9UJW2 (protein)
chain: MWTGYKILIFSYLTTEIWMEKQYLSQREVDLEAYFTRNHTVLQGTRFKRAIFQGQYCRNFGCCEDRDDGCVTEFYAANALCYCDKFCDRENSDCCPDYKSFCREEKEWPPHTQPWYPEGCFKDGQHYEEGSVIKENCNSCTCSGQQWKCSQHVCLVRSELIEQVNKGDYGWTAQNYSQFWGMTLEDGFKFRLGTLPPSPMLLSMNEMTASLPATTDLPEFFVASYKWPGWTHGPLDQKNCAASWAFSTASVAADRIAIQSKGRYTANLSPQNLISCCAKNRHGCNSGSIDRAWWYLRKRGLVSHACYPLFKDQNATNNGCAMASRSDGRGKRHATKPCPNNVEKSNRIYQCSPPYRVSSNETEIMKEIMQNGPVQAIMQVREDFFHYKTGIYRHVTSTNKESEKYRKLQTHAVKLTGWGTLRGAQGQKEKFWIAANSWGKSWGENGYFRILRGVNESDIEKLIIAAWGQLTSSDEP
inactive: [1] -0.0491 | [2] 0.0276 | [3] 0.0763 | [4] -0.04 | [5] -0.0108 | [25] -0.0445 | [6] 0.0131 | [7] -0.0819 | [8] -0.0758 | [26] 0.0344 | [9] -0.0419 | [10] -0.0676 | [11] 0.00038 | [12] 0.102 | [13] -0.0341 | [14] 0.0779 | [16] 0.028 | [17] -0.0122 | [18] -0.0112 | [19] 0.0168 | [20] 0.012 | [21] 0.03 | [22] -0.113 | [23] -0.111
